Results as given in PubChem BioAssay AID652104 (National Center for Advancing Translational Sciences (NCATS), 2013).
The whole screen tested about 410,000 compounds, of which about 7,200 (1.8%) were called active. The inconclusive results got no clear call from the source; some entries with a clear call stand among them for comparison. The call rests on the fitted dose curve; in most records, active means well fitted activation curve with a large enough effect; inconclusive means small, poorly fitted or top-dose-only effect, or another doubt; inactive means no such curve, though single readings can be large or run the other way. A potency beside an inconclusive call is a rough fit, not a confirmed value. A structure can be active in one record and inactive in another.

Test: qHTS of TDP-43 Inhibitors; further: nearly all actives have a fitted effect of over 50% in size; on growth rescue (activation): % of control where 0% means no effect
Conditions: TDP-43 expressing yeast growth rescue, BacTiter-Glo, 24 h; growth rescue (activation): at 46.1 µM (top of the series) unless noted
How it was run: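 Cell-based yeast growth screen: TDP-43 expression induced in galactose, inoculum OD600=0.02 after raffinose pregrowth to mid-log. Read-out BacTiter-Glo luminescence at 24 hr, 30 deg C; inhibition of toxicity seen as signal increase.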
Potency means the concentration at half of the fitted maximal effect; tags describe the fitted curve by direction and shape.

Growth rescue (activation), inactive:
CC(C)Oc1ccc(CNC(=O)c2ccc3nc(SCc4ccc(F)cc4)n(C)c3c2)cc1 -2.33%
Cc1ccccc1Cn1c(C)c(CNCc2ccccc2)c(C(=O)O)c1C -0.0064%
COc1cc2c(C(=O)N3CCN(c4cccc(C)c4)C(C)C3)cn(CC(C)C)c(=O)c2cc1OC (stereo unspecified) 19.9%
CCN(C(=O)CSc1nc(C)nc2sc(C)c(C)c12)c1ccc(F)cc1 -4.12%
O=C(NCc1ccco1)c1ccc2c(c1)N(Cc1ccc(F)cc1)C(=O)c1ccccc1S2=O (stereo unspecified) 5.54%
Cc1onc(-c2c(F)cccc2Cl)c1C(=O)c1ccccc1 0%
CC(Oc1ccc(Cl)cc1Cl)C(=O)Nc1cccnc1 (stereo unspecified) 1.44%
N#Cc1nc(-c2ccc(OCc3ccc(Cl)cc3)cc2)oc1NCc1cccnc1 8.71%
COc1cccc(C(NC(C)=O)c2ccc3cccnc3c2O)c1 (stereo unspecified) 3.7%
Cc1cc(N2CCOCC2)nc2ccc(NC(=O)C3CCC(C)CC3)cc12 (stereo unspecified) 22.8%
O=C(Nc1cccs1)Nc1ccc(F)cc1F 21.3% [at 9.22 µM]
COc1ccc(COc2cc(-c3cccc(OC)c3)nc3ccc(NC(C)=O)cc23)cc1 2.59%
CCN(CC(=O)NCc1ccc(Cl)cc1)C(=O)/C=C/c1ccc(Cl)c([N+](=O)[O-])c1 12.9%
COc1c(F)c(F)c(C(=O)O)c(Nc2cc(C)cc(C)c2)c1F -6.54%

Growth rescue (activation), inconclusive:
CCOc1cc(/C=C2\C(=O)ON=C2c2ccccc2)cc(Br)c1O -35.4% [activator]

Potency, inconclusive:
Cc1cccc(Nc2nc(N3CCOCC3)nc(N3CCOCC3)n2)c1 8.91 µM [activator, single point]
Cn1nc(-c2ccc(Cl)cc2)c2cc(C(=O)N3CCN(c4ccccc4)CC3)sc21 8.91 µM [activator, partial curve, poor fit]
Cc1ccc(CNC(=O)CCC(=O)N2CC(C)Oc3ccccc32)cc1 (stereo unspecified) 11.2 µM [activator, partial curve, poor fit]
CC(C)Cc1cc(C(=O)Nc2cccnc2)no1 31.6 µM [activator, single point]
CC(=O)[C@@H]1[C@@H](C)N(Cc2ccccc2)C(=O)N[C@H]1c1ccccc1 3.55 µM [activator, single point]
CCOc1cc(S(=O)(=O)NC2CCCCC2)ccc1F 17.8 µM [activator, single point]
O=C(c1ccccc1)C1CCN(c2ncccc2[N+](=O)[O-])CC1 15.8 µM [activator, single point]
O=C(CC1SC(=O)N(c2ccccc2)C1=O)Nc1ccc(Cl)cc1 (stereo unspecified) 3.98 µM [activator, partial curve]
Brc1ccccc1-c1nnc(CSc2nnnn2-c2ccccc2)o1 15.8 µM [activator, single point]
O=C(CSc1nncs1)NC1CCCCCCC1 17.8 µM [activator, partial curve]
Clc1cccc(N2CCN(c3nnnn3-c3ccccc3)CC2)c1 11.2 µM [activator, partial curve]
CSc1ccc(CN(C)C(=O)C(Cc2ccccc2)NC(=O)c2ccccc2)cc1 (stereo unspecified) 22.4 µM [activator, partial curve]
Cc1ccc2nc(NCc3ccccc3Cl)c3nnnn3c2c1 0.316 µM [activator, full curve, poor fit]
CCc1nnc(NC(=O)c2nc(S(C)(=O)=O)ncc2Cl)s1 35.5 µM [activator, partial curve, poor fit]
O=C(Nc1nnc(SCc2ccc(Cl)cc2)s1)C1CCCO1 (stereo unspecified) 11.2 µM [activator, single point]
CNc1nc(Cl)c(SC)c(NCc2ccc(F)cc2)n1 7.08 µM [activator, full curve]
Cc1cc(C)c(S(=O)(=O)c2ccccc2)c(OC(=O)c2c(Cl)cccc2Cl)n1 5.01 µM [activator, full curve]
Cc1ccccc1CN1C[C@H]2CON(C)[C@H]2C[C@H]1c1cccc(Br)c1 14.1 µM [activator, partial curve]
CC(C)Nc1ccc(-c2nc(-c3ccncc3)no2)cc1[N+](=O)[O-] 2.24 µM [activator, full curve, poor fit]
Cc1ccc(NC(=O)CN2C(=O)CCc3ccccc32)cc1C 5.62 µM [activator, partial curve]
COc1ccc(CCNC(=S)Nc2ccccc2)cc1 10 µM [activator, partial curve]
N#Cc1ccc(N2CCN(C(=O)c3cccs3)CC2)c(F)c1 11.2 µM [activator, single point]
O=C(Nc1ccc2nn(-c3ccc(F)cc3)nc2c1)c1cccnc1 10 µM [activator, single point]
CCCC(=O)n1nc(-c2ccccc2)nc1N 35.5 µM [activator, single point]
O=S(=O)(NCCc1csc2nc(-c3ccccc3)nn12)c1cccs1 15.8 µM [activator, partial curve]
O=C(NCc1ccccc1)c1nc(S(=O)(=O)Cc2ccc(F)cc2)ncc1Cl 2.82 µM [activator, partial curve]
COc1ccc(/C=N/N2CCOCC2)cc1COc1ccc(F)cc1 22.4 µM [activator, single point]
Cc1cccc(-n2c(CCc3ccccc3)nnc2SCC(=O)c2ccccc2)c1 31.6 µM [activator, single point]
COc1ccc(S(=O)(=O)c2cnc3cc(OC)c(OC)cc3c2N2CCCC(C)C2)cc1 (stereo unspecified) 25.1 µM [activator, single point]
CSC(=NC#N)N1CCN(c2ccc(Cl)cc2)CC1 7.08 µM [activator, full curve]
CCOC(=O)N1CCN(C(=O)CSc2nc(-c3cccc(C)c3)ns2)CC1 22.4 µM [activator, single point]
COc1cc(/C=C/C(=O)c2ccc3c(c2)OCCO3)cc(OC)c1OC 22.4 µM [activator, partial curve]
Cc1ccc(Nc2nc(C)nc3c2oc2ccccc23)cc1 11.2 µM [activator, single point]
Cc1ccc(Cl)cc1N1CCN(C(=O)Cc2cn(C)c3ccccc23)CC1 35.5 µM [activator, single point]
Cn1cnc(S(=O)(=O)N2CCCCC2c2cc(C(=O)Nc3ccc(F)c(Cl)c3)no2)c1 (stereo unspecified) 10 µM [activator, partial curve, poor fit]
CCN1CC2([N+](=O)[O-])C=CC(=O)C([N+](=O)[O-])(C1)C2CC(=O)c1ccccc1 (stereo unspecified) 28.2 µM [activator, single point]
CC1=NN(S(=O)(=O)c2ccc(Cl)cc2Cl)C(=O)c2ccccc2O1 31.6 µM [activator, single point]
COc1ccccc1NC(=O)c1ccc2nc(C)sc2c1 6.31 µM [activator, single point]
Cc1cccn2cc(-c3c[nH]c4ccccc34)nc12 22.4 µM [activator, partial curve]
CNC(=S)N/N=C/c1ccc(N(C)C)cc1 11.2 µM [activator, partial curve]
Cc1cc(O)c(N)c(C)c1Cl 35.5 µM [activator, partial curve]
CCOc1ccc([C@@H]2CC=C(C(=O)O)[C@H](c3ccc(F)cc3)N2S(=O)(=O)c2ccc(C)cc2)cc1 17.8 µM [activator, single point]
COc1ccc(-c2nc(CSCC(=O)NC3CCCc4ccccc43)c(C)o2)cc1 (stereo unspecified) 0.355 µM [activator, full curve, poor fit]
CC(C)CNc1nc(S(=O)(=O)c2ccccc2)c(Cl)s1 12.6 µM [activator, single point]
CCc1ccc(OCCNC(=O)c2cc(SC)ccc2Cl)cc1 28.2 µM [activator, single point]
CCC(C)Oc1cc(-c2ccnc(Nc3cccc(Cl)c3)n2)ccn1 (stereo unspecified) 0.891 µM [activator, full curve, poor fit]

Potency, active:
COC(=O)c1ccc(OC(=O)CS(=O)c2ccccc2[N+](=O)[O-])cc1 (stereo unspecified) 12.6 µM
CC(C)c1ccc(C2=CC(c3cccc(Cl)c3)n3ncnc3N2)cc1 (stereo unspecified) 12.6 µM
COC(=O)c1cc(Cl)cc2c(C)c(C3(O)CCCCC3)[nH]c12 35.5 µM
COc1ccc(Nc2nc(-c3cccs3)cs2)c(OC)c1 12.6 µM
Cc1ccc(-c2csc(C(O)c3ccccc3)n2)cc1C (stereo unspecified) 25.1 µM
COc1ccccc1NC(=O)COc1cccnc1[N+](=O)[O-] 7.94 µM
O=C(Nc1cccs1)Nc1ccc(F)cc1F 14.1 µM
O=C(O)Cn1c(-c2cccs2)cc2cc(Cl)ccc21 17.8 µM
CCOc1ccc(NC2SC(=O)N(Cc3ccccc3)C2=O)cc1 (stereo unspecified) 12.6 µM
CCOc1ccccc1NC(=O)CN1C(=O)COc2ccc(C)cc21 11.2 µM
